According to the supplement of paper PMC4604168 (melanoma cell lines):
The list shows a part of the results. Most values come without repeats; read them as rough.

Key:
Assay in all cases: cell count relative to DMSO control; melanoma cells; higher = more viable cells
Conditions in all cases: library dose: standard library concentration; 72 h
G361 = system: G361
IPC-298 = system: IPC-298
IST-MEL1 = system: IST-MEL1
LOXIMVI = system: LOXIMVI
MEL-HO = system: MEL-HO
MeWo = system: MeWo
RPMI7951 = system: RPMI7951
RVH-421 = system: RVH-421
SkMel28 = system: SkMel28
SkMel30 = system: SkMel30
SkMel5 = system: SkMel5
UACC257 = system: UACC257
UACC62 = system: UACC62
WM115 = system: WM115
WM1716 = system: WM1716
WM1745 = system: WM1745
WM3526 = system: WM3526
SkMel2 = system: SkMel2
LB2518-MEL = system: LB2518-MEL
MZ2-MEL = system: MZ2-MEL
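Note: cells treated in 1,536-well plates, then fixed and DAPI-stained, with nuclei counted from automated high-throughput microscope images.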

| SMILES | cell count (G361) [%] | cell count (IPC-298) [%] | cell count (IST-MEL1) [%] | cell count (LOXIMVI) [%] | cell count (MEL-HO) [%] | cell count (MeWo) [%] | cell count (RPMI7951) [%] | cell count (RVH-421) [%] | cell count (SkMel28) [%] | cell count (SkMel30) [%] | cell count (SkMel5) [%] | cell count (UACC257) [%] | cell count (UACC62) [%] | cell count (WM115) [%] | cell count (WM1716) [%] | cell count (WM1745) [%] | cell count (WM3526) [%] | cell count (SkMel2) [%] | cell count (LB2518-MEL) [%] | cell count (MZ2-MEL) [%] |
| --- | --- | --- | --- | --- | --- | --- | --- | --- | --- | --- | --- | --- | --- | --- | --- | --- | --- | --- | --- | --- |
| CO[C@H]1C[C@@H]2CC[C@@H](C)[C@@](O)(O2)C(=O)C(=O)N2CCCC[C@H]2C(=O)O[C@H]([C@H](C)C[C@@H]2CC[C@@H](OCCO)[C@H](OC)C2)CC(=O)[C@H](C)/C=C(\C)[C@@H](O)[C@@H](OC)C(=O)[C@H](C)C[C@H](C)/C=C/C=C/C=C/1C [everolimus] + Cc1ccc(NC(=O)c2cccc(N(C)C)c2)cc1NC(=O)c1ccc(O)cc1 [ZM336372] (first compound 0.1 µM, partner dose 10 µM) | 88.1 | 104 | 83.4 | 117 | 104 | 90.1 | 85.7 | 134 | 128 | 129 | 139 | 125 | 134 | 64.5 | 90.8 | 94.5 | 76.9 |  |  |  |
| Nc1nc(F)nc2c1ncn2[C@@H]1O[C@H](CO)[C@@H](O)[C@@H]1O [fludarabine] + Cn1nnc2c(C(N)=O)ncn2c1=O [temozolomide] (first compound 1 µM, partner dose 10 µM) | 81.5 | 81.2 | 67.7 | 97.3 | 71.4 | 104 | 82.4 | 105 | 2.39 | 15.5 | 23.5 | 39 | 54 | 92.3 | 57.9 | 95.7 | 26 | 1.7 |  |  |
| CC(=O)c1c(C)c2cnc(Nc3ccc(N4CCNCC4)cn3)nc2n(C2CCCC2)c1=O [palbociclib] + c1cc(-c2cnn3cc(-c4ccc(OCCN5CCCCC5)cc4)cnc23)ccn1 [Dorsomorphin] (first compound 0.2 µM, partner dose 2 µM) | 56.8 | 80.5 | 83.3 | 119 | 81.6 | 53.8 | 70.6 | 83.1 | 53.3 | 92.1 | 52.7 | 93 | 56.3 | 58.6 | 49.4 |  | 59.9 | 86 | 67.8 | 77.3 |
| Nc1nc(F)nc2c1ncn2[C@@H]1O[C@H](CO)[C@@H](O)[C@@H]1O [fludarabine] + O=S(=O)(c1ccccc1)N(CC(F)(F)F)c1ccc(C(O)(C(F)(F)F)C(F)(F)F)cc1 [T0901317] (first compound 1 µM, partner dose 7 µM) | 77.1 | 75.3 | 77.3 | 95.3 | 86.2 | 81.9 | 62.7 | 112 | 4.28 | 28.4 | 18.7 | 45.9 | 66.7 | 79.7 | 83 |  | 37 |  |  |  |
| CC(=O)O[C@@]12CO[C@@H]1C[C@H](O)[C@@]1(C)C(=O)[C@H](O)C3=C(C)[C@@H](OC(=O)[C@H](O)[C@@H](NC(=O)OC(C)(C)C)c4ccccc4)C[C@@](O)([C@@H](OC(=O)c4ccccc4)[C@H]21)C3(C)C [Docetaxel] + CCCCCCCCCCCC1=C(O)C(=O)C=C(O)C1=O [Embelin] (first compound 0.0005 µM, partner dose 6 µM) | 16.4 | 36.4 | 41.5 | 56.4 | 43.1 | 25.3 | 20.9 | 51.2 | 17.7 | 44.5 | 39.3 | 54.9 | 53.4 | 39.6 | 28.4 |  | 32.5 | 9.76 | 39.2 | 32.3 |
| CO[C@H]1C[C@@H]2CC[C@@H](C)[C@@](O)(O2)C(=O)C(=O)N2CCCC[C@H]2C(=O)O[C@H]([C@H](C)C[C@@H]2CC[C@@H](OCCO)[C@H](OC)C2)CC(=O)[C@H](C)/C=C(\C)[C@@H](O)[C@@H](OC)C(=O)[C@H](C)C[C@H](C)/C=C/C=C/C=C/1C [everolimus] + COc1ccc2c(c1)CCC1C2CCC2(C)C(NCCCCCCN3C(=O)C=CC3=O)CCC12 [U73122] (first compound 0.1 µM, partner dose 2 µM) | 46.5 | 77 | 76.9 | 70.2 | 63.3 | 32.6 | 27.9 | 50.6 | 47.9 | 63.9 | 52.2 | 92.5 | 55 | 65.7 | 72.1 |  | 71.5 | 62.5 | 69.8 | 82.9 |
| Nc1ncn([C@H]2C[C@H](O)[C@@H](CO)O2)c(=O)n1 [decitabine] + COc1cc(N2CCC(N3CCN(C)CC3)CC2)ccc1Nc1ncc(Cl)c(Nc2ccccc2S(=O)(=O)C(C)C)n1 [NVP-TAE684] (first compound 0.5 µM, partner dose 0.4 µM) | 78.6 | 69.7 | 79.2 | 95.5 | 74.5 | 68.3 | 61.1 | 93.8 | 87.6 | 99.6 | 46.8 | 89.5 | 74.7 | 54.8 | 76.1 |  | 67.5 | 54.6 | 78.4 | 81.6 |
